For data set [1], the target named is neurotensin receptor 1 (NTS1R), endogenous in HT-29 colon carcinoma cells (human (endogenous in HT-29)) (UniProt P30989). Put plainly: radioligand binding; competition with [^3H]UR-MK300 at intact HT-29 cells, 23 ± 1 °C, DPBS with 1% BSA and 0.1 mg/mL bacitracin; pIC50 converted to pKi (Cheng-Prusoff).
Data set [2] can be described thus: stability in human plasma/PBS 1:2 v/v (37 °C). To be noted: for proteolytic stability in human plasma (in words): over 48 h; for remaining at 2 h, 80 μM: read-out: % intact compound in plasma after 2 h; for remaining at 6 h, 80 μM: read-out: % intact compound in plasma after 6 h; for remaining at 24 h, 80 μM: read-out: % intact compound in plasma after 24 h; for remaining at 48 h, 80 μM: read-out: % intact compound in plasma after 48 h; for half-life: in vitro, read-out: t 1/2 in human plasma. The class given is in vitro ADME.

Data set [3] has as its target T1, human NTS2R in membranes of HEK293T-hNTS2R cells (human, UniProt O95665 1-410).
T1 construct: Used as membrane preparations, not intact cells; source: HEK293T-hNTS2R cells, membrane preparations
Put plainly: radioligand binding; competition with 5 nM [^3H]UR-MK300 at membranes of HEK293T-hNTS2R cells, protein 135 μg/mL. The note with it: one partner purified.

Setting [4] is: human, human blood plasma/PBS 1:2 v/v, human plasma/PBS 1:2 v/v, 37 °C, 80 μM.
Where [5] appears, read: human, human blood plasma/PBS 1:2 v/v, human plasma/PBS 1:2 v/v, 37 °C, 80 μM, 48 h.

Where two headings read alike, the source gives them in different places.

One may read the pKi as the Ki on a negative log10 scale, so that one unit is a factor of ten. What is called Ki is the dissociation constant of the complex between target and ligand, obtained from inhibition or displacement. Lower therefore signals tighter binding.

For the molecule “Lys-Lys-Pro-Tyr-Ile-β-trimethylsilyl-Ala (6) (peptide)”, the pKi in data set [1] was determined as 10.3.

Turning to `CC[C@H](C)[C@H](NC(=O)[C@H](Cc1ccc(O)cc1)NC(=O)[C@@H]1CCCN1C(=O)[C@H](CCCNC(=N)N)NC(=O)[C@H](CCCNC(=N)N)NC)C(=O)N[C@@H](C[Si](C)(C)C)C(=O)O` [compound 15, N ^α-Methyl-Arg-Arg-Pro-Tyr-Ile-β-trimethylsilyl-Ala Tris(hydrotrifluoroacetate)], the “proteolytic stability in human plasma (in words)” value (“proteolytic stability” for short) in data set [2] (human plasma, 37 °C) is “moderate proteolytic stability”. In data set [2] (setting [4]), the remaining at 2 h, 80 μM was 83 ± 1%; the remaining at 6 h, 80 μM was found to be 80 ± 1%; the remaining at 24 h, 80 μM came to 65 ± 1%. The remaining at 48 h, 80 μM in data set [2] (setting [5]) is approximately 50%.

As for `CC[C@H](C)[C@H](NC(=O)[C@@H](NC(=O)[C@@H]1CCCN1C(=O)[C@H](CCCNC(=N)N)NC(=O)[C@H](CCCNC(=N)NC(=O)NCCCCNC(=O)CCCCCN1\C(=C/C=C/C=C/C2=[N+](CCCCS(=O)(=O)[O-])c3ccccc3C2(C)C)C(C)(C)c2cc(S(=O)(=O)O)ccc21)NC)C(C)(C)c1ccc(O)cc1)C(=O)N[C@@H](C[Si](C)(C)C)C(=O)O` [compound 21, N ^α-Methyl-N ^ω-{[4-(N-{6-3H-[2-(5–3H-(1-(4-sulfonatobutyl)-3,3-dimethyl)indol-2-ylidenepent-1,3-dienyl)-3,3-dimethyl-5-sulfo]indol-1-ium-1-yl}hexanoyl)-aminobutyl]aminocarbonyl}Arg-Arg-Pro-β,β-dimethyl-L-Tyr-Ile-β-trimethylsilyl-Ala Tris(hydrotrifluoroacetate)], the metabolised at 48 h in data set [2] (human blood plasma/PBS 1:2 v/v, human plasma, 48 h, attributed to adsorption to the vessel, read-out: apparent degradation after 48 h) was found to be 10%. Further, the “proteolytic stability” value in data set [2] (human plasma, 37 °C) is “high proteolytic stability”. Further, in data set [2] (human plasma), the half-life was more than 2880 min. In data set [2] (setting [4]), the remaining at 2 h, 80 μM was determined as 97 ± 1%; the remaining at 6 h, 80 μM was 93 ± 1%; the remaining at 24 h, 80 μM amounted to 90 ± 1%. Moreover, the remaining at 48 h, 80 μM in data set [2] (setting [5]) turned out to be 90 ± 2%.

For `CC[C@H](C)[C@H](NC(=O)[C@H](Cc1ccc(O)cc1)NC(=O)[C@@H]1CCCN1C(=O)[C@H](CCCNC(=N)N)NC(=O)[C@@H](N)CCCNC(=N)N)C(=O)N[C@@H](CC(C)C)C(=O)O` [NT(8–13), reference compound], in data set [2] (human plasma, 37 °C), the “proteolytic stability” value is reported as “very low plasma stability”. Further, in data set [2] (human, human blood plasma/PBS 1:2 v/v, human plasma/PBS 1:2 v/v, 37 °C, 80 μM, 10 min, read-out: % intact compound in plasma after 10 min), the remaining at 10 min, 80 μM was determined as 17 ± 1%. For the same molecule, in data set [2] (human, human blood plasma/PBS 1:2 v/v, human plasma/PBS 1:2 v/v, 37 °C, 80 μM, 30 min, read-out: % intact compound in plasma after 30 min), the remaining at 0.5 h, 80 μM was less than 1%. For the same molecule, in data set [2] (setting [4]), the remaining at 2 h, 80 μM was less than 1% and the remaining at 6 h, 80 μM is less than 1%.

On to `CC[C@H](C)[C@H](NC(=O)[C@@H](NC(=O)[C@@H]1CCCN1C(=O)[C@H](CCCNC(=N)N)NC(=O)[C@H](CCCNC(N)=NC(=O)NCCCCNC(=O)c1ccc(-c2c3ccc(=[N+](C)C)cc-3oc3cc(N(C)C)ccc23)c(C(=O)[O-])c1)NC)C(C)(C)c1ccc(O)cc1)C(=O)N[C@@H](C[Si](C)(C)C)C(=O)O` [compound 19, N ^α-Methyl-N ^ω-{[4-(N-{1-carboxylato[2-(6-(dimethylamino)-3-(dimethyliminio))-3H-xanthen-9-yl]phen-5-yl}carbonyl)-aminobutyl]aminocarbonyl}Arg-Arg-Pro-β,β-dimethyl-L-Tyr-Ile-β-trimethylsilyl-Ala Tris(hydro-trifluoroacetate)], for which the half-life in data set [2] (human blood plasma/PBS 1:2 v/v, human plasma) is more than 2880 min. The “proteolytic stability” value in data set [2] (human plasma, 37 °C) is reported as “high proteolytic stability”. Further, in data set [2] (setting [4]), the remaining at 2 h, 80 μM is more than 99%; the remaining at 6 h, 80 μM stood at 95 ± 2%; the remaining at 24 h, 80 μM amounted to 93 ± 2%.

For `CC[C@H](C)[C@H](NC(=O)[C@@H](NC(=O)[C@@H]1CCCN1C(=O)[C@H](CCCNC(=N)N)NC(=O)[C@H](CCCNC(N)=NC(=O)NCCCCN)NC)C(C)(C)c1ccc(O)cc1)C(=O)N[C@@H](C[Si](C)(C)C)C(=O)O` [17a, N ^α-Methyl-N ^ω-[(4-aminobutyl)aminocarbonyl]Arg-Arg-Pro-β,β-dimethyl-L-Tyr-Ile-β-trimethylsilyl-Ala Tetrakis(hydrotrifluoroacetate)], the “proteolytic stability” value in data set [2] (human plasma, 37 °C) is on record as “high proteolytic stability”. In addition, in data set [2] (setting [4]), the remaining at 2 h, 80 μM was more than 99%; the remaining at 6 h, 80 μM is more than 99%; the remaining at 24 h, 80 μM is more than 99%. For the same molecule, the remaining at 48 h, 80 μM in data set [2] (setting [5]) is more than 99%.

B1: 5-TAMRA-labeled NT(8–13) derivative 19 (peptide)
peptide: RRPYIA
modifications: Nα-methyl-Nω-carbamoylated Arg at position 8 with 5-TAMRA attached through the 4-aminobutyl-aminocarbonyl side chain; β,β-dimethyl-L-Tyr at position 11; β-trimethylsilyl-Ala (TMSAla) at position 13
notes: NT(8–13) derivative printed in three-letter code; Tris(hydrotrifluoroacetate) salt; also called UR-FE093; source: synthetic peptide (17a treated with 5-TAMRA succinimidyl ester, preparative RP-HPLC)
In data set [3], B1 showed a Ki of 0.78 nM.

B2: sulfo-Cy5-labeled NT(8–13) derivative 21 (peptide)
peptide: RRPYIA
modifications: Nα-methyl-Nω-carbamoylated Arg at position 8 with sulfo-Cy5 attached through the 4-aminobutyl-aminocarbonyl side chain; β,β-dimethyl-L-Tyr at position 11; β-trimethylsilyl-Ala (TMSAla) at position 13
notes: NT(8–13) derivative printed in three-letter code; Tris(hydrotrifluoroacetate) salt; also called UR-FE094; source: synthetic peptide (17a treated with sulfo-Cy5 succinimidyl ester, preparative RP-HPLC)
For B2, the Ki in data set [3] came out at 0.75 nM.
